Patent publication US12583836B2 (Anaxis Pharma Pty Ltd, priority 2020, dated 2026)
One block for each compound: values may come before it.

Tests used:
[1] = tested on: U937 cells; experiment: Counter screen: cell viability without the TSQ cocktail (CelltiterGlo); set-up: species or system human; details: Homo sapiens, U-937, cell viability by CelltiterGlo, read-out: Off-target effect (IC50 cell-based assay)
Protocol: Counter screen: In parallel, all compounds were tested for their ability to affect cell viability. The same U937 cells were treated with compound in DMSO without the TSQ cocktail. This counter screen enabled evaluation of off-target effects. In this case, cell viability was measured by CelltiterGlo.

[2] = target: T1, MLKL (full length) (Homo sapiens, UniProt Q8NB16); experiment: KINOMEscan binding assay, MLKL; details: equilibrium dissociation constant, class symbols
T1 construct: purchased DiscoverX (KINOMEscan service); host or cells: E. coli BL21-derived (T7 phage) or HEK293
T1 sequence (Q8NB16 1-471): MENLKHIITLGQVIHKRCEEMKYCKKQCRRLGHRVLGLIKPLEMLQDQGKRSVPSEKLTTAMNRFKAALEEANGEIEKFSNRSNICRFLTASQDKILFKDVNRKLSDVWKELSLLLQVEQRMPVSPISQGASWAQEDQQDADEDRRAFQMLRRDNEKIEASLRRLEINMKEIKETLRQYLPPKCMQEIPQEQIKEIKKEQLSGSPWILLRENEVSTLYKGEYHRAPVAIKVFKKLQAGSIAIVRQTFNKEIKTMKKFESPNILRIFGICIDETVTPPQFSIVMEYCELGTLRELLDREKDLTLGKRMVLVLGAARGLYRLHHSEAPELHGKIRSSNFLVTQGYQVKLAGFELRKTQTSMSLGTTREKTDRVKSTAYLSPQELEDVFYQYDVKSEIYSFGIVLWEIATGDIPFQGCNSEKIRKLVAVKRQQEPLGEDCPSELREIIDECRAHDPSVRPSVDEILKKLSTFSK
From the text: The Hill Slope was set to −1.

[3] = tested on: U937 human histiocytic leukemia cell line; experiment: Inhibition of TSQ induced necroptosis, 384 well plate format (CellTitre-Glo); details: Homo sapiens, U-937; U937 cells, TSQ cocktail (TNF, Smac mimetic, Q-VD-OPh), CelltiterGlo; read-out: Inhibition of TSQ-induced necroptosis (IC50 cell-based assay)
Procedure, shortened: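 Necroptosis was induced in U937 cells (20,000/well) by hTNF-Fc 100 ng/ml, Smac mimetic 500 nM and Q-VD-OPh 10 μM for 48 h at 37 °C. Compounds were run as a 10-point 1:3 series from 36 μM in 0.3% DMSO. Viability was read by CellTiter-Glo luminescence (DMSO = 100%, DMSO+TSQ = 0%), and IC50 was taken from a 4-parameter fit.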

[4] = target: T2, RIP1 (Homo sapiens, UniProt Q13546); experiment: KINOMEscan binding assay, RIP1; details: equilibrium dissociation constant, class symbols
T2 construct: purchased DiscoverX (KINOMEscan service); host or cells: E. coli BL21-derived (T7 phage) or HEK293
T2 sequence (Q13546 1-671): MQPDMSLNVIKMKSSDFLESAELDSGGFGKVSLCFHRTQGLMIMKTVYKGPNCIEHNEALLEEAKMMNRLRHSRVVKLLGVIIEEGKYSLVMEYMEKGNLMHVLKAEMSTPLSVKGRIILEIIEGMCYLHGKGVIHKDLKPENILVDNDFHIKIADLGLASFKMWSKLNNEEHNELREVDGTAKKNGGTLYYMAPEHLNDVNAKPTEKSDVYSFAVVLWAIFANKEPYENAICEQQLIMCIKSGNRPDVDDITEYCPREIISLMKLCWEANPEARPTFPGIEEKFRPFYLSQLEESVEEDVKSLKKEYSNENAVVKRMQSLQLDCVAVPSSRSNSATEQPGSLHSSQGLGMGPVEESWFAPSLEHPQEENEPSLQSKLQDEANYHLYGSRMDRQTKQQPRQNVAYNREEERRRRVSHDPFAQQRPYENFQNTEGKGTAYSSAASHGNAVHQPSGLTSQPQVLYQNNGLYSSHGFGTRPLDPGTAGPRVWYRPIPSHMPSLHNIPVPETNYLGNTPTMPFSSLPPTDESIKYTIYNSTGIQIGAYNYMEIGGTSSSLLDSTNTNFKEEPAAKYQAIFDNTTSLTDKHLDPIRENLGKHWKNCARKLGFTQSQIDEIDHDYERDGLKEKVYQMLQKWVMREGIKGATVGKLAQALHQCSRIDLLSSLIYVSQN

Structure (SMILES): CCS(=O)(=O)Nc1ccc(-c2n[nH]c(Nc3cccc(OCCOC)n3)c2C(N)=O)cc1OCc1ccc(F)cc1 [Compound 174, 3-(4-(ethylsulfonamido)-3-((4-fluorobenzyl)oxy)phenyl)-5-((6-(2-methoxyethoxy)pyridine-2-yl)amino)-1H-pyrazole-4-carboxamide]
Kd [4]: > 30 µM
Kd [2]: 0.01 to 1 µM

Structure (SMILES): CCS(=O)(=O)Nc1ccc(-c2n[nH]c(Nc3cnccn3)c2C(N)=O)cc1OCC1CCCN(C)C1 (stereo not shown) [Compound 187, 3-(4-(ethylsulfonamido)-3-((1-methylpiperidin-3-yl)methoxy)phenyl)-5-(pyrazin-2-ylamino)-1H-pyrazole-4-carboxamide]
Kd [4]: > 30 µM
Kd [2]: 0.01 to 1 µM

Structure (SMILES): CCS(=O)(=O)Nc1ccc(-c2n[nH]c(Nc3cccnc3C(F)(F)F)c2C(N)=O)cc1OCc1ccc(F)cc1 [Compound 192, 3-(4-(ethylsulfonamido)-3-((4-fluorobenzyl)oxy)phenyl)-5-((2-(trifluoromethyl)pyridine-3-yl)amino)-1H-pyrazole-4-carboxamide]
Kd [4]: > 30 µM
Kd [2]: 0.01 to 1 µM

Structure (SMILES): CCS(=O)(=O)Nc1ccc(-c2n[nH]c(Nc3cccc(C(F)(F)F)n3)c2C(N)=O)cc1OCC1CCCCC1 [Compound 200]
Kd [4]: > 30 µM
Kd [2]: 0.01 to 1 µM

Structure (SMILES): NC(=O)c1c(-c2ccc(NS(=O)(=O)C(F)F)c(OC(c3ccc(F)cc3)C3CCC3)c2)n[nH]c1Nc1cnccn1 (stereo not shown) [Compound 236, 3-{3-[cyclobutyl(4-fluorophenyl)methoxy]-4-(difluoromethanesulfonamido)phenyl}-5-[(pyrazin-2-yl)amino]-1H-pyrazole-4-carboxamide]
Kd [4]: > 30 µM
Kd [2]: < 0.01 µM

Structure (SMILES): NC(=O)c1c(-c2ccc(NS(=O)(=O)CC(F)(F)F)c(OCc3ccc(F)cc3)c2)n[nH]c1Nc1ccccn1 [Compound 239]
Kd [4]: > 30 µM
Kd [2]: < 0.01 µM

Structure (SMILES): C[C@H](Oc1cc(NS(=O)(=O)C(F)F)ccc1-c1n[nH]c(Nc2cnccn2)c1C(N)=O)c1ccc(F)cc1 [Compound 243, 3-[4-(difluoromethanesulfonamido)-2-[(1S)-1-(4-fluorophenyl)ethoxy]phenyl]-5-[(pyrazin-2-yl)amino]-1H-pyrazole-4-carboxamide]
Kd [4]: > 30 µM
Kd [2]: 0.01 to 1 µM

Structure (SMILES): C[C@@H](Oc1cc(NS(=O)(=O)C(F)F)ccc1-c1n[nH]c(Nc2cnccn2)c1C(N)=O)c1ccc(F)cc1 [Compound 255, 3-[4-(difluoromethanesulfonamido)-2-[(1R)-1-(4-fluorophenyl)ethoxy]phenyl]-5-[(pyrazin-2-yl)amino]-1H-pyrazole-4-carboxamide]
Kd [4]: > 30 µM
Kd [2]: 0.01 to 1 µM

Structure (SMILES): NC(=O)c1c(-c2ccc(NS(=O)(=O)CC(F)(F)F)c(OCc3ccc(Cl)cc3)c2)n[nH]c1Nc1ccccn1 [Compound 269, 3-{3-[(4-chlorophenyl)methoxy]-4-(2,2,2-trifluoroethanesulfonamido)phenyl}-5-[(pyridin-2-yl)amino]-1H-pyrazole-4-carboxamide]
Kd [4]: > 30 µM
Kd [2]: < 0.01 µM

Structure (SMILES): C[C@H](Oc1cc(-c2n[nH]c(Nc3cc(C4(C)CCOCC4)on3)c2C(N)=O)ccc1NS(=O)(=O)C(F)F)c1ccc(F)cc1 [Compound 301, (S)-3-(4-((difluoromethyl)sulfonamido)-3-(1-(4-fluorophenyl)ethoxy)phenyl)-5-((5-(4-methyltetrahydro-2H-pyran-4-yl)isoxazol-3-yl)amino)-1H-pyrazole-4-carboxamide]
IC50 [1]: > 30 µM
Kd [2]: < 0.01 µM
IC50 [3]: 0.01 to 1 µM

Continued, in another order:

Kd [2]: < 0.01 µM
Structure (SMILES): CC[C@@H](Oc1cc(-c2n[nH]c(Nc3cnccn3)c2C(N)=O)ccc1NS(=O)(=O)CC(F)(F)F)c1ccc(F)cc1 (single isomer, unassigned) [Compound 251]
IC50 [1]: > 30 µM
IC50 [3]: 1 to 30 µM

Kd [4]: > 30 µM
Kd [2]: < 0.01 µM
Structure (SMILES): NC(=O)c1c(-c2ccc(NS(=O)(=O)CC(F)F)c(OCc3ccc(F)cc3)c2)n[nH]c1Nc1cccc(C(F)(F)F)n1 [Compound 178, 3-(4-((2,2-difluoroethyl)sulfonamido)-3-((4-fluorobenzyl)oxy)phenyl)-5-((6-(trifluoromethyl)pyridine-2-yl)amino)-1H-pyrazole-4-carboxamide]

Kd [4]: > 30 µM
Kd [2]: < 0.01 µM
Structure (SMILES): Cc1cnc(Nc2[nH]nc(-c3ccc(NS(=O)(=O)CCC(F)(F)F)c(OCc4ccc(F)cc4)c3)c2C(N)=O)cn1 [Compound 183, 3-(3-((4-fluorobenzyl)oxy)-4-((3,3,3-trifluoropropyl)sulfonamido)phenyl)-5-((5-methylpyrazin-2-yl)amino)-1H-pyrazole-4-carboxamide]

Kd [4]: > 30 µM
Kd [2]: < 0.01 µM
Structure (SMILES): CCS(=O)(=O)Nc1ccc(-c2n[nH]c(Nc3cnccn3)c2C(N)=O)cc1Oc1ccc(Cl)cc1 [Compound 185, 3-(3-(4-chlorophenoxy)-4-(ethylsulfonamido)phenyl)-5-(pyrazin-2-ylamino)-1H-pyrazole-4-carboxamide]

Kd [4]: > 30 µM
Kd [2]: < 0.01 µM
Structure (SMILES): CCS(=O)(=O)Nc1ccc(-c2n[nH]c(Nc3ccnc(C(F)(F)F)n3)c2C(N)=O)cc1OCc1ccc(F)cc1 [Compound 195, 3-(4-(ethylsulfonamido)-3-((4-fluorobenzyl)oxy)phenyl)-5-((2-(trifluoromethyl)pyrimidin-4-yl)amino)-1H-pyrazole-4-carboxamide]

Kd [4]: > 30 µM
Kd [2]: < 0.01 µM
Structure (SMILES): CCS(=O)(=O)Nc1ccc(-c2n[nH]c(Nc3cnccn3)c2C(N)=O)cc1Oc1cccc(F)c1 [Compound 204, 3-(4-(ethylsulfonamido)-3-(3-fluorophenoxy)phenyl)-5-(pyrazin-2-ylamino)-1H-pyrazole-4-carboxamide]

Kd [4]: > 30 µM
Kd [2]: < 0.01 µM
Structure (SMILES): CCS(=O)(=O)Nc1ccc(-c2n[nH]c(Nc3cnccn3)c2C(N)=O)cc1OCCc1ccccc1 [Compound 210, 3-(4-(ethylsulfonamido)-3-phenethoxyphenyl)-5-(pyrazin-2-ylamino)-1H-pyrazole-4-carboxamide]

Kd [4]: > 30 µM
Kd [2]: < 0.01 µM
Structure (SMILES): NC(=O)c1c(-c2ccc(NS(=O)(=O)C(F)F)c(OCc3ccc(F)cc3)c2)n[nH]c1Nc1cccc(C(F)(F)F)n1 [Compound 217]

Kd [4]: > 30 µM
Kd [2]: < 0.01 µM
Structure (SMILES): CCS(=O)(=O)Nc1ccc(-c2n[nH]c(Nc3cnccn3)c2C(N)=O)cc1OCCc1cccc(F)c1 [Compound 219, 3-(4-(ethylsulfonamido)-3-(3-fluorophenethoxy)phenyl)-5-(pyrazin-2-ylamino)-1H-pyrazole-4-carboxamide]

Kd [4]: > 30 µM
Kd [2]: < 0.01 µM
Structure (SMILES): COCCOc1cc(Nc2[nH]nc(-c3ccc(NS(=O)(=O)N(C)C)cc3)c2C(N)=O)ccn1 [Compound 221, 3-(4-((N,N-dimethylsulfamoyl)amino)phenyl)-5-((2-(2-methoxyethoxy)pyridin-4-yl)amino)-1H-pyrazole-4-carboxamide]

Kd [4]: > 30 µM
Kd [2]: < 0.01 µM
Structure (SMILES): NC(=O)c1c(-c2ccc(NS(=O)(=O)CC(F)(F)F)c(OCc3ccccn3)c2)n[nH]c1Nc1cnccn1 [Compound 227, 5-[(pyrazin-2-yl)amino]-3-{3-[(pyridin-2-yl)methoxy]-4-(2,2,2-trifluoroethanesulfonamido)phenyl}-1H-pyrazole-4-carboxamide]

Kd [4]: > 30 µM
Kd [2]: < 0.01 µM
Structure (SMILES): CCS(=O)(=O)Nc1ccc(-c2n[nH]c(Nc3cnccn3)c2C(N)=O)cc1O[C@@H](C)c1ccccn1 [Compound 230, 3-{4-ethanesulfonamido-3-[(1S)-1-(pyridin-2-yl)ethoxy]phenyl}-5-[(pyrazin-2-yl)amino]-1H-pyrazole-4-carboxamide]
